From the supplement of paper PMC4967469
IC50 is the fitted dose that halves viability relative to control wells, and lower means more sensitive; where the fit passes the top or lowest dose, that dose stands as a limit. AUC is the area under the same curve over the 256-fold range up to the top dose, as a fraction; the more sensitive the line, the further below 1. For some of these results: A top dose marked as inferred was calculated from the reported fits.

How the values were obtained:
Assay in all cases: Viability of human cancer cell lines after 72 h of drug (GDSC screen)
[1] = compound: COc1cc(C(=O)NC2CCN(C)CC2)ccc1Nc1ncc2c(n1)N(C1CCCC1)C(C)CC(=O)N2C [NPK76-II-72-1]; settings: top dose 10.24 µM; top dose inferred
Method: (§1)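 Human cancer cell lines in 384-well plates, medium with 10% serum, drug for 72 h over a 256-fold dose range (nine 2-fold or five 4-fold steps up to the top dose). Adherent lines were fixed and stained with the nucleic acid dye Syto60, suspension lines read with resazurin; signal relative to control wells, capped at 0 and 100%. One two-parameter sigmoid per drug and line, fitted in a mixed model over all curves with the slope shared within a line.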

[2] = compound: NC(=O)Nc1cc(-c2cccc(F)c2)sc1C(=O)N[C@H]1CCCNC1 [AZD7762]; settings: top dose 2 µM
Method: as §1

[3] = compound: Cc1ccc2nc(NCCN)c3ncc(C)n3c2c1 [BMS-345541]; settings: top dose 16 µM
Method: as §1

[4] = compound: COc1cc([C@@H]2c3cc4c(cc3[C@@H](O[C@@H]3O[C@@H]5CO[C@@H](C)O[C@H]5[C@H](O)[C@H]3O)[C@H]3COC(=O)[C@H]23)OCO4)cc(OC)c1O [Etoposide]; settings: top dose 16 µM
Method: as §1

[5] = compound: C=C(c1ccc(C(=O)O)cc1)c1cc2c(cc1C)C(C)(C)CCC2(C)C [Bexarotene]; settings: top dose 8 µM
Method: as §1

[6] = compound: O=C(O)c1ccc(-c2c[nH]c3ncc(-c4ccccc4)cc23)cc1C1CCCC1 [GSK-650394]; settings: top dose 16 µM; top dose inferred
Method: as §1

[7] = compound: Oc1nc(-c2ccc(C(F)(F)F)cc2)nc2c1CSCC2 [XAV 939]; settings: top dose 5 µM; top dose inferred
Method: as §1

Row | Cell Line | AUC [1] | IC50 [1] [µM] | AUC [2] | IC50 [2] [nM] | AUC [3] | IC50 [3] [µM] | AUC [4] | IC50 [4] [nM] | AUC [5] | IC50 [5] [µM] | AUC [6] | IC50 [6] [µM] | AUC [7] | IC50 [7] [µM]
1 | 201T (lung adenocarcinoma, adherent) | 0.887 | > 10.2 | 0.64 | 339 | 0.86 | > 16 | 0.381 | 433 | 0.933 | > 8 | 0.795 | 9.64 |  | 
2 | C-4-I (cervix, adherent) | 0.964 | > 10.2 | 0.427 | 77.8 | 0.895 | > 16 | 0.555 | 1430 | 0.898 | > 8 | 0.7 | 3.86 |  | 
3 | D-247MG (glioma, adherent) | 0.736 | 3.94 | 0.886 | > 2000 |  |  | 0.829 | 15500 |  |  |  |  | 0.954 | > 5
4 | D-336MG (glioma, adherent) | 0.845 | > 10.2 | 0.68 | 463 | 0.852 | > 16 | 0.886 | > 16000 |  |  |  |  | 0.927 | > 5
5 | DMS-273 (small cell lung carcinoma, adherent) | 0.673 | 2 | 0.801 | 1050 | 0.855 | 13.9 | 0.42 | 596 | 0.87 | > 8 | 0.852 | 13.5 |  | 
6 | GCIY (stomach, adherent) | 0.967 | > 10.2 | 0.837 | 1590 | 0.958 | > 16 | 0.495 | 970 | 0.901 | > 8 | 0.861 | > 16 |  | 
7 | GP5d (large intestine, adherent) | 0.85 | 6.56 |  |  | 0.91 | > 16 | 0.694 | 3260 | 0.884 | 7.07 | 0.917 | > 16 | 0.99 | > 5
8 | H2803 (mesothelioma, adherent) | 0.956 | > 10.2 |  |  | 0.892 | > 16 | 0.86 | > 16000 | 0.98 | > 8 | 0.98 | > 16 | 0.937 | > 5
9 | H2804 (mesothelioma, adherent) | 0.938 | > 10.2 |  |  | 0.922 | > 16 | 0.542 | 1310 | 0.986 | > 8 | 0.928 | > 16 | 0.984 | > 5
10 | H-EMC-SS (chondrosarcoma, adherent) | 0.721 | 3.3 |  |  | 0.892 | > 16 | 0.869 | > 16000 | 0.961 | > 8 | 0.951 | > 16 | 0.979 | > 5
11 | HT55 (large intestine, adherent) | 0.966 | > 10.2 | 0.847 | 1460 | 0.986 | > 16 | 0.896 | > 16000 | 0.956 | > 8 | 0.948 | > 16 |  | 
12 | IST-MES1 (mesothelioma, adherent) | 0.914 | > 10.2 |  |  | 0.939 | > 16 | 0.939 | > 16000 | 0.988 | > 8 | 0.932 | > 16 | 0.915 | > 5
13 | KMS-12-BM (myeloma, suspension) | 0.592 | 1.09 | 0.513 | 134 | 0.831 | 7.83 | 0.751 | 4470 | 0.978 | > 8 | 0.966 | > 16 |  | 
14 | KYSE-140 (oesophagus, adherent) | 0.938 | > 10.2 | 0.472 | 104 | 0.714 | 4.41 | 0.713 | 4390 | 0.924 | > 8 | 0.765 | 6.61 |  | 
15 | LB996-RCC (kidney, adherent) | 0.983 | > 10.2 |  |  | 0.983 | > 16 | 0.887 | > 16000 | 0.903 | > 8 | 0.936 | > 16 | 0.841 | 4.31
16 | LB1047-RCC (kidney, adherent) | 0.979 | > 10.2 | 0.419 | 72.8 | 0.843 | 13.5 | 0.615 | 2170 |  |  | 0.7 | 3.97 | 0.848 | 4.47
17 | LNCaP-Clone-FGC (prostate, adherent) | 0.912 | > 10.2 |  |  | 0.864 | > 16 | 0.818 | 10700 | 0.983 | > 8 | 0.971 | > 16 | 0.978 | > 5
18 | MHH-NB-11 (neuroblastoma, adherent) | 0.789 | 5.02 | 0.698 | 479 | 0.802 | 8.76 | 0.483 | 895 | 0.985 | > 8 | 0.982 | > 16 |  | 
19 | MKN28 (stomach, adherent) | 0.973 | > 10.2 | 0.824 | 1220 | 0.925 | > 16 | 0.657 | 2750 | 0.936 | > 8 | 0.82 | 9.46 |  | 
20 | MY-M12 (leukaemia, suspension) | 0.473 | 0.537 | 0.648 | 341 | 0.628 | 2.36 | 0.542 | 1330 | 0.941 | > 8 | 0.803 | 9.21 |  | 
21 | NB6 (neuroblastoma, adherent) | 0.848 | > 10.2 | 0.809 | 1350 | 0.878 | > 16 | 0.902 | > 16000 | 0.898 | > 8 | 0.967 | > 16 |  | 
22 | NB17 (neuroblastoma, adherent) | 0.95 | > 10.2 | 0.625 | 292 | 0.975 | > 16 | 0.6 | 1970 |  |  |  |  | 0.98 | > 5

Row | Cell Line | AUC [1] | IC50 [1] [µM] | AUC [2] | IC50 [2] [nM] | AUC [3] | IC50 [3] [µM] | AUC [4] | IC50 [4] [nM] | AUC [5] | IC50 [5] [µM] | AUC [6] | IC50 [6] [µM] | AUC [7] | IC50 [7] [µM]
23 | NB69 (neuroblastoma, adherent) | 0.9 | > 10.2 | 0.768 | 665 | 0.841 | 9.31 | 0.076 | < 62.5 | 0.988 | > 8 | 0.942 | > 16 |  | 
24 | NCI-H64 (small cell lung carcinoma, suspension) | 0.869 | 5.62 | 0.658 | 303 | 0.864 | 8.48 | 0.742 | 3930 | 0.986 | > 8 | 0.966 | > 16 |  | 
25 | NCI-H510A (small cell lung carcinoma, semi-adherent) | 0.661 | 1.72 | 0.921 | > 2000 | 0.978 | > 16 | 0.796 | 6790 | 0.989 | > 8 | 0.887 | 15.4 |  | 
26 | NCI-H630 (large intestine, adherent) | 0.967 | > 10.2 | 0.839 | 1520 | 0.917 | > 16 | 0.815 | 9590 |  |  |  |  | 0.987 | > 5
27 | NCI-H1734 (lung adenocarcinoma, adherent) | 0.973 | > 10.2 | 0.477 | 107 | 0.909 | > 16 | 0.595 | 1870 | 0.985 | > 8 | 0.919 | > 16 |  | 
28 | NCI-H1963 (small cell lung carcinoma, suspension) | 0.991 | > 10.2 | 0.799 | 819 |  |  | 0.795 | 6380 | 0.991 | > 8 | 0.966 | > 16 |  | 
29 | NCI-H2052 (mesothelioma, adherent) | 0.969 | > 10.2 | 0.902 | > 2000 | 0.964 | > 16 | 0.788 | 9260 | 0.974 | > 8 | 0.945 | > 16 |  | 
30 | NCI-H2171 (small cell lung carcinoma, suspension) | 0.911 | > 10.2 |  |  | 0.893 | 14.6 | 0.933 | > 16000 | 0.986 | > 8 | 0.983 | > 16 |  | 
31 | NCI-H2196 (small cell lung carcinoma, adherent) | 0.801 | 5.29 |  |  | 0.859 | 14.4 | 0.798 | 8090 | 0.987 | > 8 | 0.945 | > 16 |  | 
32 | OVKATE (ovary, adherent) | 0.887 | > 10.2 | 0.733 | 923 | 0.934 | > 16 | 0.979 | > 16000 |  |  | 0.977 | > 16 | 0.977 | > 5
33 | PA-1 (ovary, adherent) | 0.767 | 3.03 | 0.874 | 1260 | 0.709 | 3.33 | 0.15 | 120 | 0.945 | > 8 | 0.704 | 3.24 |  | 
34 | RL95-2 (endometrium, adherent) | 0.907 | > 10.2 | 0.883 | > 2000 | 0.948 | > 16 | 0.576 | 1610 |  |  |  |  | 0.95 | > 5
35 | SCC-3 (B-cell lymphoma, suspension) | 0.966 | > 10.2 |  |  | 0.914 | 11.5 | 0.496 | 980 | 0.996 | > 8 | 0.995 | > 16 |  | 
36 | SIG-M5 (acute myeloid leukaemia, suspension) | 0.531 | 0.762 |  |  | 0.592 | 1.67 | 0.166 | 143 | 0.032 | < 0.0312 | 0.476 | 0.875 |  | 
37 | SNU-475 (liver, adherent) | 0.851 | 6.48 |  |  | 0.893 | 15.2 | 0.947 | > 16000 | 0.971 | > 8 | 0.979 | > 16 |  | 
38 | SU-DHL-1 (anaplastic large cell lymphoma, suspension) | 0.959 | > 10.2 |  |  | 0.895 | 9.91 | 0.507 | 1040 | 0.997 | > 8 | 0.997 | > 16 |  | 
39 | SUP-B15 (lymphoblastic leukaemia, suspension) | 0.616 | 1.31 | 0.598 | 230 | 0.674 | 2.99 | 0.166 | 102 | 0.916 | > 8 | 0.97 | > 16 |  | 
40 | SW48 (large intestine, adherent) | 0.912 | > 10.2 | 0.789 | 879 | 0.862 | 13.6 | 0.453 | 744 | 0.934 | > 8 |  |  | 0.945 | > 5
41 | TALL-1 (T-cell lymphoblastic leukaemia, suspension) | 0.878 | 9.52 |  |  | 0.801 | 7.36 | 0.986 | > 16000 | 0.983 | > 8 | 0.984 | > 16 |  | 
42 | TE-441-T (rhabdomyosarcoma, adherent) | 0.979 | > 10.2 |  |  | 0.844 | 10.8 | 0.866 | 13300 | 0.989 | > 8 | 0.967 | > 16 |  | 
43 | UACC-812 (breast, adherent) | 0.983 | > 10.2 |  |  | 0.949 | > 16 | 0.931 | > 16000 | 0.991 | > 8 | 0.991 | > 16 |  | 
44 | VMRC-RCW (kidney, adherent) | 0.978 | > 10.2 | 0.82 | 1040 | 0.919 | > 16 | 0.676 | 2980 | 0.897 | > 8 | 0.799 | 7.06 |  | 
